According to PubChem BioAssay AID651820 (National Center for Advancing Translational Sciences (NCATS), 2012):
The whole screen tested about 340,000 compounds, of which about 12,000 (3.5%) were called active. This list was built around the results that the source calls inconclusive (neither active nor inactive); the mix of calls is not that of the screen. The call rests on the fitted dose curve; in most records, active means well fitted inhibition curve with a large enough effect; inconclusive means small, poorly fitted or top-dose-only effect, or another doubt; inactive means no such curve, though single readings can be large or run the other way. No potency is given beside an inconclusive call; the fits are too rough.

Experiment: qHTS Assay for Inhibitors of Hepatitis C Virus (HCV)
Conditions: Huh7.5.1 HCVcc-Cre (HCVcc is cell-culture hepatitis C virus) infection, luciferase reporter, 44 h; activity change, negative = inhibition: at 41.8 µM (top of the series) unless noted
Summary of the method: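 HCVcc-Cre virus at an moi near 0.5 was added right after compound to cells cultured 4 h from seeding (1,000 cells/well). Luciferase activity was determined 44 h later, 15 min after substrate addition at RT.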
On the % scale 0 is the no-effect control and ±100 the full control effect; potency means the concentration at half of the fitted maximal effect; tags describe the fitted curve by direction and shape.

| SMILES | Potency | activity change, negative = inhibition |
| --- | --- | --- |
| CCOC(=O)c1c(C)n(OCc2ccccc2)c2ccc3nonc3c12 | inconclusive [inhibitor, partial curve] | – |
| COc1cc(C)c2occ(/C(C)=N\O)c2c1 | active: 8.91 µM | – |
| COc1ccc(S(=O)(=O)N2CCOC23CCN(S(=O)(=O)c2c(C)cc(C)cc2C)CC3)cc1 | inconclusive [inhibitor, single point] | – |
| Nc1nc(-c2ccccc2)c(-c2ccc([N+](=O)[O-])cc2)s1 | inconclusive [inhibitor, single point] | – |
| Cc1cccc(NS(=O)(=O)c2cn(C)c(=O)n(C)c2=O)c1C | – | inactive: 14% |
| COc1cc2c(=O)n(CCC(=O)NCC3CCCO3)c(=O)n(CC(=O)c3ccc(Cl)cc3)c2cc1OC (centres undefined) | active: 2 µM | – |
| Cc1cccc(CN2CCc3c(OCC(=O)NCc4ccco4)cccc3C2=O)c1 | – | inactive: -25.6% |
| O=C(COC(=O)/C=C/c1cccs1)Nc1ccc(Cl)cc1F | inconclusive [inhibitor, single point] | – |
| NC(N)=Nc1nc(C2COc3ccccc3O2)cs1 (centres undefined) | inconclusive [inhibitor, partial curve] | – |
| O=C(Nc1ccccc1)N1CCCN(c2ccc(C(F)(F)F)cn2)CC1 | active: 11.2 µM | – |
| COc1ccc(CNc2nc3ccccc3n2CCN2CCOCC2)cc1 | – | inactive: 8.38% |
| Cc1onc(-c2ccccc2Cl)c1C(=O)OCC(=O)Nc1cccc(S(=O)(=O)N(C)C)c1 | inconclusive [inhibitor, single point] | – |
| CC(C)C(NS(=O)(=O)c1cccc2nsnc12)C(=O)NC1CCCCC1 (centres undefined) | – | inactive: 4.86% |
| Cc1ccc(-c2nc3cccnc3o2)cc1NC(=O)COc1ccc(Cl)cc1C | inconclusive [inhibitor, partial curve, poor fit] | – |
| CC(C)(CNC(=O)c1cccc(NS(=O)(=O)c2ccc(Br)cc2)c1)N1CCOCC1 | inconclusive [inhibitor, full curve, poor fit] | – |
| CCCn1c(SCC(=O)c2c(C)[nH]c(C)c2C(=O)OCC)nc2ccccc21 | inconclusive [inhibitor, full curve, poor fit] | – |
| CC(C)n1c(N2CCN(S(=O)(=O)c3cccc([N+](=O)[O-])c3)CC2)nc2ccccc21 | inconclusive [inhibitor, single point] | – |
| Cc1nc(NC(=O)/C=C/c2ccccc2)sc1C(=O)N(C)C | – | inactive: 21% |
| O=c1[nH]n(-c2ncnc3c2cnn3-c2ccccc2)c(=O)c2ccccc12 | – | inactive: -1.73% |
| c1ccc2c(Cn3ccnc3)cccc2c1 | – | inactive: 24.1% |
| CCOC(=O)c1c(SCC(=O)Nc2nc(C)cs2)nc(=O)[nH]c1C | – | inactive: 2.02% |
| CCOC(=O)CC(=O)CSc1nc2cc(C)ccc2cc1C | inconclusive [inhibitor, single point] | – |
| COc1ccc(-n2nnnc2/C=C\Nc2ccccc2C(=O)c2ccccc2)cc1 | active: 7.94 µM | – |
| COc1cc(/C=C/C(=O)OCC(=O)Nc2ccc3c(c2)OCCO3)ccc1O | – | inactive: 10.9% |
| Oc1ccccc1N=Nc1nc(-c2ccccc2)c(-c2ccccc2)[nH]1 | active: 3.55 µM | – |

| SMILES | Potency | activity change, negative = inhibition |
| --- | --- | --- |
| O=C(NCc1ccco1)c1cccc2c1C(=O)c1ccc(/C=C/c3ccccc3)cc1S2(=O)=O | inconclusive [inhibitor, single point] | – |
| COc1ccc(C)cc1N(CC(=O)NCCN1CCOCC1)S(=O)(=O)c1ccccc1 | – | inactive: 17.3% |
| COC(CNC(=O)c1ccc2nc3ccccc3c(=O)n2c1)OC | – | inactive: 20.1% |
| CN(C)c1ccc(C(C(=O)NCc2ccccc2)N(Cc2ccco2)C(=O)c2snc(C(N)=O)c2N)cc1 (centres undefined) | active: 12.6 µM | – |
| CCN(CC)c1ccc(CNc2nc3ccccc3n2CC)cc1 | inconclusive [inhibitor, single point] | – |
| O=C(NC(Cc1c[nH]c2ccccc12)C(=O)OCC(=O)c1cccc2ccccc12)c1cccs1 (centres undefined) | – | inactive: 0.0836% |
| CCC(C)[C@@H](NC(=O)OC(C)(C)C)c1nnc(S(=O)(=O)Cc2cccc(C)c2)o1 (some centres undefined) | inconclusive [inhibitor, single point] | – |
| Cc1ccc(S(=O)(=O)N2CCC(=O)N(CCOCc3ccc(C(F)(F)F)cc3)CC2)cc1 | inconclusive [inhibitor, partial curve] | – |
| CCC(=O)NC(=S)Nc1cccc(Cl)c1N1CCCCC1 | inconclusive [inhibitor, single point] | – |
| O=C(c1ccoc1)N1CCC(CO)(CCc2ccccc2)CC1 | – | inactive: -6.74% |
| COc1ccccc1N1CCN(CCCCOc2c(OC)cccc2OC)CC1 | inconclusive [inhibitor, single point] | – |
| CNc1nc2cc([N+](=O)[O-])c([N+](=O)[O-])cc2nc1NC | inconclusive [inhibitor, full curve] | – |
| COc1ccc(C2CC(c3ccccc3)n3nnnc3N2)cc1 (centres undefined) | – | inactive: 5.98% |
| COc1ccc(/C(C)=N/NC(=S)Nc2cc(C)ccc2C)cc1 | inconclusive [inhibitor, single point] | – |
| CCOC(=O)c1ccc(CSC(=N)N)o1 | inconclusive [inhibitor, single point] | – |
| CC(=O)c1ccc(NC(=O)COC(=O)c2c3c(nc4ccccc24)/C(=C\c2cccs2)CCC3)cc1 | inconclusive [inhibitor, full curve] | – |
| Cc1cccc(N2C(=O)c3cccc4c(N(C)CCO)ccc(c34)C2=O)c1 | active: 11.2 µM | – |
| COc1ccccc1C(=O)Nc1sc2c(c1C(N)=O)CCCC2 | inconclusive [inhibitor, full curve] | – |
| COc1ccc2cc(CN(CC3CCCO3)S(=O)(=O)c3ccccc3Cl)c(=O)[nH]c2c1 (centres undefined) | inconclusive [inhibitor, partial curve] | – |
| CC1CCCCC1NC(=O)Cc1ccc(S(=O)(=O)N2CCOCC2)s1 (centres undefined) | inconclusive [inhibitor, single point] | – |
| COc1ccc(S(=O)(=O)NCc2ccc3c(c2)OCO3)cc1OC | – | inactive: -1.49% |
| CCOc1ccc(C(=O)NC2CCN(C(=S)NCc3ccco3)CC2)cc1 | inconclusive [inhibitor, single point] | – |
| Cc1nn(Cc2c(Cl)cccc2Cl)c(C)c1NC(=O)CCCn1nc(C)c([N+](=O)[O-])c1C | inconclusive [inhibitor, full curve] | – |
| O=C(NN=Cc1ccc(N2CCOCC2)cc1)c1cc2ccccc2cc1O | – | inactive: -0.628% |
| O=C(Nc1ccc(N2CCOCC2)cc1N1CCOCC1)c1ccc(Cl)cc1 | inconclusive [inhibitor, partial curve] | – |

| SMILES | Potency | activity change, negative = inhibition |
| --- | --- | --- |
| Cn1ncc(S(=O)(=O)Cc2ccccc2)c(Cl)c1=O | – | inactive: 7.04% |
| Cc1ccc(OCCCCNC(C)(C)C)c([N+](=O)[O-])c1 | inconclusive [inhibitor, partial curve] | – |
| Cc1ccc(Cn2c(SCC(=O)N3CC(=O)Nc4ccccc43)nc3ccccc3c2=O)cc1 | active: 10 µM | – |
| Cc1cc(C(=O)CS(=O)(=O)c2ccc(Cl)cc2)cc(C)c1O | active: 11.2 µM | – |
| O=C(COC(=O)CCC1CCCC1)Nc1ccc(F)cc1Cl | inconclusive [inhibitor, single point] | – |
| OCCN(CCO)CC(O)CN1c2ccccc2Sc2ccccc21 (centres undefined) | – | inactive: 13.4% |
| COc1ccc(CNC(=S)Nc2ccc(Br)cc2)cc1 | inconclusive [inhibitor, single point] | – |
| COc1cc(NC(=O)CNc2cccc(S(=O)(=O)N3CCOCC3)c2)cc(OC)c1 | inconclusive [inhibitor, single point] | – |
| CC(=O)c1cccc(NC(=O)CNC(=O)c2sc3ccccc3c2Cl)c1 | – | inactive: -19.5% |
| O=C(c1cc2nc(-c3ccccc3)cc(-c3ccccc3)n2n1)N1CCC2(CC1)OCCO2 | active: 10 µM | – |
| O=C(NCCOc1ccccc1)C1CCC(=O)N(Cc2ccc(Cl)cc2)C1 (centres undefined) | – | inactive: 4.04% |
| CCOC(=O)c1c2c(n(Cc3ccccc3)c1C)C(=O)C(=O)c1ccccc1-2 | inconclusive [inhibitor, full curve] | – |
| COC(=O)CCN1CCN(S(=O)(=O)c2ccccc2Br)CC1 | inconclusive [inhibitor, partial curve] | – |
| O=[N+]([O-])c1ccc(Nc2c3ccccc3nc3ccccc23)cc1 | – | inactive: -8.95% |
| COC(=O)c1c(NC(=O)Cc2ccc(OC)c(S(=O)(=O)N3CCOCC3)c2)sc(C)c1C | inconclusive [inhibitor, partial curve] | – |
| CN(CC(O)CON=C1c2ccccc2-c2ccccc21)S(=O)(=O)c1ccc(Br)cc1 (centres undefined) | inconclusive [inhibitor, single point] | – |
| COc1ccc(N2C(=O)C(Cc3ccccc3)NC2=S)cc1 (centres undefined) | inconclusive [inhibitor, single point] | – |
| CCS(=O)(=O)c1ccc2oc(Nc3cccc(OC)c3)nc2c1 | inconclusive [inhibitor, single point] | – |
| CC1CCCN(C(C(=O)NC2CCCCC2)c2cc3c(cc2[N+](=O)[O-])OCO3)C1 (centres undefined) | inconclusive [inhibitor, single point] | – |
| COc1ccc2nc(NC(=O)C3CC(=O)N(c4ccccc4)C3)sc2c1 (centres undefined) | – | inactive: 4.45% |
| CON(C)c1nc(OCCNC(=O)COc2ccc(Cl)cc2C)nc(N(C)C)n1 | inconclusive [inhibitor, single point] | – |
| CCOc1ccc(C(=O)NCCc2ccc3c(c2)OCCO3)cc1 | – | inactive: -8.62% |
| Cc1csc(C)[n+]1CC(=O)c1ccccc1 | – | inactive: 4.42% |
| O=C1NC(Cc2ccc(O)cc2)c2nc3cc(Cl)ccc3c(=O)n2-c2cc(Cl)ccc21 (centres undefined) | active: 25.1 µM | – |
